The supplement of paper PMC7826260
The list shows a part of the results. Each Rep nickase domain was tested in vitro on the same pool of single strands (1 h at 37 °C, 3 µM enzyme); the outer parts of the 90-letter strands are left off. The score is log2 (uncut reads / reads without enzyme); the lower, the more was cut; hits are not called. The scaling is to total reads, so uncut sequences can rise above 0 when many others are cut.

Columns and labels:
Experiment in all cases: uncleaved DNA left, log2 of reads against the no-enzyme library (log2 ratio); higher = less cleavage (more negative = more Rep cleavage of the k-mer); sequences stand for … in CTCGTCCG…ACCGGAGA
[1] = system: T1, Rep nickase domain of Muscovy duck circovirus
T1 sequence (residues 1-111, tag not shown): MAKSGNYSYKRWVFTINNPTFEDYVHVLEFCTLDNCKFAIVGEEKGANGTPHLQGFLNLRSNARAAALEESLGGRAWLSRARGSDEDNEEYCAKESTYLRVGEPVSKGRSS
Method: (§1)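 A pool of 90-nt single-stranded DNAs with seven random bases just before the constant AC of the nick site (name = the seven bases) was cut by 3 µM recombinant His6-SUMO-tagged Rep nickase domain (300 nM DNA, 50 mM HEPES pH 8.0, 50 mM NaCl, 1 mM MnCl2, 1 h, 37 °C, three replicates). Uncut DNA was amplified and sequenced.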

[2] = system: T2, Rep nickase domain of banana bunchy top virus
T2 sequence (residues 1-94, tag not shown): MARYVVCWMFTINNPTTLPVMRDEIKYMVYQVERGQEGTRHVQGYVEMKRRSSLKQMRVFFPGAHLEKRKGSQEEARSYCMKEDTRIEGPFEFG
Method: as §1

[3] = system: T3, Rep nickase domain of cabbage leaf curl virus
T3 sequence (residues 1-116, tag not shown): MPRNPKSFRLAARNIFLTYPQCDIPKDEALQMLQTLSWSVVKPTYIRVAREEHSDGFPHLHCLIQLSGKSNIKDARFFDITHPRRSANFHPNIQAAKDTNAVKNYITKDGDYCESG
Method: as §1

[4] = system: T4, Rep nickase domain of chickpea chlorotic dwarf virus
T4 sequence (residues 1-124, tag not shown): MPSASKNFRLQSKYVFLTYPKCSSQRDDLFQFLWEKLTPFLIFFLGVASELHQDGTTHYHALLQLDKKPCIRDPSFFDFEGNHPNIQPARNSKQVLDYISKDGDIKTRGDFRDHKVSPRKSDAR
Method: as §1

[5] = system: T5, Rep nickase domain of faba bean necrotic yellows virus
T5 sequence (residues 1-98, tag not shown): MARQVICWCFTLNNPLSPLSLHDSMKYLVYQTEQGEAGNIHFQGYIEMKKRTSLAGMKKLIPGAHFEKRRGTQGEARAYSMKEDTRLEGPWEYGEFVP
Method: as §1

[6] = system: T6, Rep nickase domain of maize striate mosaic virus
T6 sequence (residues 1-117, tag not shown): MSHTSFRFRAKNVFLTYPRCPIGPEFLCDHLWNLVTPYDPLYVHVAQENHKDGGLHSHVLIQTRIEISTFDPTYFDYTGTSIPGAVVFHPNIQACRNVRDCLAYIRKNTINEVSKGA
Method: as §1

[7] = system: T7, Rep nickase domain of porcine circovirus 2
T7 sequence (residues 2-116, tag not shown): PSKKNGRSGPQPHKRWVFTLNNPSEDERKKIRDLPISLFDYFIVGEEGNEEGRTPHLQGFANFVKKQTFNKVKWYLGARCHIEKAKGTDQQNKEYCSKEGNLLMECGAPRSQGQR
Method: as §1

[8] = system: T8, Rep nickase domain of tomato golden mosaic virus
T8 sequence (residues 1-124, tag not shown): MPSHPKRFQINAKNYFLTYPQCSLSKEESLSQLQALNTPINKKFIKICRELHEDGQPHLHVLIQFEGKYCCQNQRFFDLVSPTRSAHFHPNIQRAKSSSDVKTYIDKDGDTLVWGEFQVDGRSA
Method: as §1

[9] = system: T9, Rep nickase domain of tomato yellow leaf curl virus
T9 sequence (residues 1-136, tag not shown): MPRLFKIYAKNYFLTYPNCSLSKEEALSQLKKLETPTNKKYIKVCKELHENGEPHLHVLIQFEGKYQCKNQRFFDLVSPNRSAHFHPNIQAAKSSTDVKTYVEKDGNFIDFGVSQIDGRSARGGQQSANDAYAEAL
Method: as §1

[10] = system: T10, Rep nickase domain of wheat dwarf virus
T10 sequence (residues 1-137, tag not shown): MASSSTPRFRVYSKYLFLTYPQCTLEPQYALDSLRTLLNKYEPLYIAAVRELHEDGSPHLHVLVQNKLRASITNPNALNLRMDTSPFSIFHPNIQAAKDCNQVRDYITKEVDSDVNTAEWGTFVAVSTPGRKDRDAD
Method: as §1

Sequence | uncleaved DNA left (log2) [1] | uncleaved DNA left (log2) [2] | uncleaved DNA left (log2) [3] | uncleaved DNA left (log2) [4] | uncleaved DNA left (log2) [5] | uncleaved DNA left (log2) [6] | uncleaved DNA left (log2) [7] | uncleaved DNA left (log2) [8] | uncleaved DNA left (log2) [9] | uncleaved DNA left (log2) [10]
TTGCATT | 0.0497 | -0.166 | -0.525 | -1.38 | -0.212 | -1.01 | -0.404 | -0.208 | 0.035 | -0.0467
GTAAACT | 0.0437 | 0.0922 | 0.317 | 0.583 | 0.01 | 1.72 | 0.104 | 0.118 | 0.0749 | 0.0635
CTTGGAG | 0.0147 | -0.00572 | -0.825 | -0.438 | -0.0217 | -0.931 | 0.164 | -0.0187 | 0.122 | -0.106
TTCTGGC | 0.0732 | -0.184 | -0.15 | -0.373 | -0.104 | -0.879 | 0.0259 | -0.0902 | -0.0852 | -0.188
CTACTAT | 0.214 | 0.0106 | -0.0423 | -2.03 | 0.049 | -0.343 | -0.142 | 0.031 | 0.132 | 0.0529
AGGTTGC | -0.0559 | -0.0528 | -0.71 | -0.398 | 0.00661 | -1.14 | 0.163 | -0.0192 | 0.0157 | -0.0568
TAGGTGA | 0.000351 | 0.0109 | 0.136 | 0.199 | 0.0351 | 0.0986 | 0.0214 | 0.139 | -0.00872 | -0.0601
AGCTTGG | -0.0724 | 0.0363 | 0.126 | 0.998 | -0.0604 | 0.752 | -0.0459 | 0.0541 | -0.0398 | -0.0619
GTGTGCA | -0.0382 | 0.0514 | 0.203 | 0.659 | -0.124 | 0.924 | 0.0496 | -0.0296 | 0.0958 | 0.019
GACACTC | -0.0526 | -0.0553 | 0.279 | 0.526 | -0.0182 | 0.722 | -0.0309 | -0.0875 | -0.0261 | 0.0634
AGCTTTA | 0.0787 | 0.0633 | -0.0898 | -0.566 | 0.00627 | 0.0476 | -1.38 | 0.0891 | 0.0243 | 0.157
GCTGTCA | 0.00766 | -0.0497 | -0.0626 | 0.254 | -0.101 | 0.584 | -0.184 | -0.0618 | 0.0155 | -0.00163
CTCCAGG | -0.113 | -0.16 | 0.176 | 0.843 | 0.0619 | 0.568 | -0.175 | -0.0781 | -0.0845 | -0.0455
AAATGGA | -0.0399 | -0.00649 | -0.0888 | 0.181 | 0.0681 | -0.155 | -0.236 | -0.00883 | -0.136 | 0.000618
CTTGAAG | 0.061 | -0.0735 | -0.729 | -0.506 | 0.0551 | -0.984 | 0.0791 | -0.126 | -0.0361 | -0.0899
